{
  "source": "paper PMC12136788",
  "binders": {"B1": {"name": "chr5:113567122:113567223:+|CDS|ENSG00000047188|unk|FALSE|bound_elsewhere (ssRNA)", "RNA": "GGGAGUUCUACAGUCCGACGAUCAAACUCUGAGAAUUGGGCUGUCGUUAAAGCUGCAUUGGUGGCAGGCAUGUAUCCUAAUUUAGUCCACGUGGACAGAGAGAAUCUAGUGUUGACAGGGCCAAAGGAGAAAAAAGUACGAUUCAACAGAGGAUUGAGCAUCA"}, "B2": {"name": "chr7:44064065:44064166:+|3pUTR|ENSG00000136279|msi1|total|mutant (ssRNA)", "RNA": "GGGAGUUCUACAGUCCGACGAUCGCACACCCUUCCCGCCUUUCCAGGACUCAACAAGCUUUAAGGUCAUUCAGAUGCUAAUUCCGACUGCCCUUGUGUCAGAAUACUAAGGUGGGAGGCGGAGCGGAGGUGCCAGUCACUCUGCAACAGAGGAUUGAGCAUCA"}, "B3": {"name": "chr16:88813726:88813828:-|3pUTR|ENSG00000141012|unk|total|mutant (ssRNA)", "RNA": "GGGAGUUCUACAGUCCGACGAUCUCCCUGGACGCUAAUUAUGAGGGAGGCGUGCCGCUUCUUAUCAUUGUAACUAUGUUAUUCCGAAAUAAAACGGGAGGCAGGUUUGCCUAAUUCCCAGCUUGAUUUUUCUCUUGGCUGAGUCAACAGAGGAUUGAGCAUCA"}, "B4": {"name": "chr17:49053040:49053141:+|3pUTR|ENSG00000159217|unk|total|mutant (ssRNA)", "RNA": "GGGAGUUCUACAGUCCGACGAUCCUCAGCUCCUGUGAGGGGUCUGGUCCGGAGAGAGCCAUUUUUAAGGACAGGGAGUUUUACCGCCCUUUUCUACUUUCCUCCCCUCCUCCCAGUCCUUAUCAAUCUUUUUUCCUUUUUCCUCAACAGAGGAUUGAGCAUCA"}, "B5": {"name": "chr14:44924370:44924471:-|3pUTR|ENSG00000179454|unk|total|mutant (ssRNA)", "RNA": "GGGAGUUCUACAGUCCGACGAUCACCUUUUCCGCAUCAGGGUUUUAUUUUAUUUAUGUUUACACACUAAAGUGUCAUUUAACCCGUUAAGAAUUGUAUUCUUUUUUAUUUUAAAGGUUAUUUGUGUGUAUCAUUGUGGUAAUGCAACAGAGGAUUGAGCAUCA"}, "B6": {"name": "chr7:107202531:107202632:-|3pUTR|ENSG00000164597|msi1|FALSE|unique (ssRNA)", "RNA": "GGGAGUUCUACAGUCCGACGAUCUAUUCUGAGAACUCAUAAAUAAAAUUCAGCCAAGAUUAAUCAAUCAAUCAAUCAAUCAGUAGACGUCAGAGAUAAGCAACUUUUUUUUCCAUUUAUUUGAAAUAAUAUACAAGAAUAUAGCAACAGAGGAUUGAGCAUCA"}, "B7": {"name": "chr3:43366700:43366801:-|3pUTR|ENSG00000160746|unk|FALSE|unique (ssRNA)", "RNA": "GGGAGUUCUACAGUCCGACGAUCACGGUGGCAGGGGGGGUACCCGGGGCAGCAUCGUGGCUCCUGAACCCAGACCCAAUGCUUAGCCAAACGAAGUGGCUCCCAUGUGGCAAGCACCCUUCUCAGUUUCGCAGUGGCUUGGCUCAACAGAGGAUUGAGCAUCA"}, "B8": {"name": "ENSG00000151012:stop:overlap|stop_codon|ENSG00000151012|stop_codon|NA|stop_codon (ssRNA)", "RNA": "GGGAGUUCUACAGUCCGACGAUCCUGAAGAAGUAGAAAACCCUGAAAAACCUUUUCUGAGCGGCUACUGGGAAAUUUCUCAUUAGCAGUUCCGAUCUUUGUUGCCCUCUCCUGCUUUGGCUCCAUGAACGGUGGUGUGUUUGCCAACAGAGGAUUGAGCAUCA"}, "B9": {"name": "chr3:186556460:186556561:-|CDS|ENSG00000113838|unk|FALSE|unique (ssRNA)", "RNA": "GGGAGUUCUACAGUCCGACGAUCAGAGCCAGGAAGAUCUAUCCACUUCAUGAACUUGCACUGUGGCAACCACUGCAUGCAGAUAGUGGCUUCUCAAAGAUCUCUAAGACUUUCUCUUUCUACAAACUGGAAACCUGGUUGAGGCAACAGAGGAUUGAGCAUCA"}, "B10": {"name": "chr17:4671690:4673145:-|CDS|ENSG00000141456|control|control|control (ssRNA)", "RNA": "GGGAGUUCUACAGUCCGACGAUCGGAGGAAGAAGAACUGGAAGAGGUGGAAGACCUGGAGUUUGGCACAGCAGGAGGGGAGGUAGAAGAAGGUGCACCUCCACCCCCAACCCUGCCUCCAGCUCUGCCUCCCCCUGAGUCUCCCAACAGAGGAUUGAGCAUCA"}, "B11": {"name": "chr15:22826343:22826444:+|3pUTR|ENSG00000170113|msi1|FALSE|unique (ssRNA)", "RNA": "GGGAGUUCUACAGUCCGACGAUCAAAGUCCAUUACUCUUUUUAUUGGCUCUUGCAGGUUUUGUGUUUUAUCAUCAGUGCUUUUAGAAAUGCAGGCCUUAACUUACUGAACUGAACUUUCUGAAAACGUAAUGUAGCAGUAUCACAACAGAGGAUUGAGCAUCA"}, "B12": {"name": "ENSG00000198589:be:win_8351|CDS|ENSG00000198589|bound_else_gene|NA|bound_elsewhere_windowed (ssRNA)", "RNA": "GGGAGUUCUACAGUCCGACGAUCUCACAGGAGGAGACAGAGGAGUGGUCGUGGUCCGGCAGGUGUCGGACCUCAAGCAGCUCUUUGCCUAUCCAGGAUGUGACGCUGGAAUCCGGGCCAUGGCGCUGUCUUACGACCAGAGGUCAACAGAGGAUUGAGCAUCA"}, "B13": {"name": "ENSG00000107863:be:win_4501|CDS|ENSG00000107863|bound_else_gene|NA|bound_elsewhere_windowed (ssRNA)", "RNA": "GGGAGUUCUACAGUCCGACGAUCGAAGAACCCUCACCACCACACAACUCAAAACACAACAAGUCACCAACUCUCAGCUGUCGCUUUGCCAUCCUGAAAGAGAGCCCCAGGUCACUUCUGGCACAGAAGUCCUCCCACCUUGAACAACAGAGGAUUGAGCAUCA"}, "B14": {"name": "chr16:74503563:74503676:-|CDS|ENSG00000090863|unk|total|mutant (ssRNA)", "RNA": "GGGAGUUCUACAGUCCGACGAUCGGCAACAUCACUGAGUAUCAGUGUCACCAGUACAUUACCAAGAUGACGGCCAUCAUUUUCCGUGAUUACCGUUUAAUCUGUGGCUUCAUGGAUGACUGCAAAAAUGACAUCAACAUUCUGCAACAGAGGAUUGAGCAUCA"}, "B15": {"name": "ENSG00000113758:stop:overlap|stop_codon|ENSG00000113758|stop_codon|NA|stop_codon (ssRNA)", "RNA": "GGGAGUUCUACAGUCCGACGAUCUCACAUGCUGGGAUGCAGACCCAGUUCCAGAAGAGGAGGAGGGCUUCGAGGGUGGUGAUUAGCGGUGGCGCCAGCCCUAGGCUACCCUUGCCAAGGCCGCCCACCUGCAUCAGCCUCUGGCAACAGAGGAUUGAGCAUCA"}, "B16": {"name": "chr5:137939581:137939637:-|3pUTR|ENSG00000031003|msi1_unk|FALSE|overlapping (ssRNA)", "RNA": "GGGAGUUCUACAGUCCGACGAUCUGUUAGUAAAAUUUUGCAAUUCGCUGGUCACACAGCUCCCGGAUGAAGAUAACAGUUGGUAGACCAAAAGGUGACCUCGCUUAGUAUAUUGAAAACACACACCACACAUCACACACAGAACAACAGAGGAUUGAGCAUCA"}, "B17": {"name": "chr12:49764829:49764866:+|3pUTR|ENSG00000139644|msi1_unk|total|mutant (ssRNA)", "RNA": "GGGAGUUCUACAGUCCGACGAUCACUUUUAAAGAAAAUACCUAACAGAUUUUUAAUACCGUUAUCUCUACCACUUUCUUUUCCCGUUUCUUGAUUUUCAGCUCAGGCUGCAUUCUAACUCAUACUGUGAAGACAAAGGUGUUUCAACAGAGGAUUGAGCAUCA"}, "B18": {"name": "chr1:235808650:235808751:-|CDS|ENSG00000143669|unk|total|mutant (ssRNA)", "RNA": "GGGAGUUCUACAGUCCGACGAUCUGGAAAUGGGAUGCUUUAAAGGCUUAUCAGAACUUUGUUUUUGAAGAAGACAGAUUACACCGUAUACAGAUUGCAAAUCACAUUUGCAAUUUAAUCCAGAAAGGCAAUACCGUUGUUCAGCAACAGAGGAUUGAGCAUCA"}, "B19": {"name": "chr3:160432293:160432405:+|CDS|ENSG00000113810|unk|FALSE|bound_elsewhere (ssRNA)", "RNA": "GGGAGUUCUACAGUCCGACGAUCGAAUUGUAUUUGCAACGGGUAGCAGAAUUGGACAAAAUUACUUAUGAAAGAGACAGUUUUAGACAGGCAUAUGAAGAUCUUCGGAAACAAAGGCUUAAUGAAUUUAUGGCAGGUUUUUAUCAACAGAGGAUUGAGCAUCA"}, "B20": {"name": "chr12:1780521:1780622:+|CDS|ENSG00000006831|msi1|total|mutant (ssRNA)", "RNA": "GGGAGUUCUACAGUCCGACGAUCCCCAAAUAUCUCCUUUGUGGCCCCUCUGCAAGAGAAGGUGGUCUUUGGAUUAUUUUUCUCCGGAGCCAUUCUCUGCCUUUCUUUUUCAUGGCUCUUCCACACAGUCUACUGCCACUCAGACAACAGAGGAUUGAGCAUCA"}, "B21": {"name": "chr2:69942770:69942871:+|3pUTR|ENSG00000059728|unk|total|mutant (ssRNA)", "RNA": "GGGAGUUCUACAGUCCGACGAUCUGUUUCCAGAUGUUUCUUUAUGUAAAUAUGACGCCAAUGUAAAUCCUGUGUCAAGAUCACCGAGAAUGGUGCUUUUUACUACAGUCCGCACAUGCAUUUUCCGAAACUACUACAUGUUUUCAACAGAGGAUUGAGCAUCA"}, "B22": {"name": "chr2:54972555:54972835:-|3pUTR|ENSG00000115310|msi1_unk|total|mutant (ssRNA)", "RNA": "GGGAGUUCUACAGUCCGACGAUCUGUGCACUGUGUAUGGUCCGUGCCGAUUGAUGCAGAUUUUCUGAAAUGAAAUGUUUGUUCCGACGAGAUCAUACCGGUAAAGCAGGAAUGACAAAGCUUGCUUUUCUGGUAUGUUCCCGGCAACAGAGGAUUGAGCAUCA"}},
  "note": "This is one part of the list.",
  "data": [
    {"biological_target": "MSI1 full-length (mouse, UniProt Q61474 1-362)", "sequence (Q61474 whole entry)": "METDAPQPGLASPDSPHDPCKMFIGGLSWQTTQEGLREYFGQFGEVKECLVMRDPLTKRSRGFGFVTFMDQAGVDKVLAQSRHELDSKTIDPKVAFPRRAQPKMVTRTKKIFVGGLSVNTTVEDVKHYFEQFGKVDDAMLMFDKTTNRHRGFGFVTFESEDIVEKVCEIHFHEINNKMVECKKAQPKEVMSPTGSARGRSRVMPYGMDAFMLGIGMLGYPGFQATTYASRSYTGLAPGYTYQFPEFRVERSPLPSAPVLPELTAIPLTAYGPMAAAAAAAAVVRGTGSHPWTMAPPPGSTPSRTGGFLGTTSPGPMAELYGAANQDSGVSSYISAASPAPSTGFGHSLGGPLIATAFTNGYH", "assay": "nsRBNS (natural sequence RNA bind-n-seq); RBNS binding buffer (assumed for nsRBNS): 25 mM Tris pH 7.5, 150 mM KCl, 3 mM MgCl2, 0.01% Triton X-100, 500 ug/ml BSA, 20 U/ml SUPERase-In, 4 C; UNK is unkempt and MSI1 is Musashi-1; names of the RNAs are library labels; protein concentration not given here; high values mean tight binding", "units": {"binding signal": "enrichment R"}, "values": [
      {"binder": "B1", "binding signal": 0.82},
      {"binder": "B2", "binding signal": 0.334},
      {"binder": "B3", "binding signal": 0.301},
      {"binder": "B4", "binding signal": 0.698},
      {"binder": "B5", "binding signal": 0.653},
      {"binder": "B6", "binding signal": 5.92},
      {"binder": "B7", "binding signal": 0.447},
      {"binder": "B8", "binding signal": 0.404},
      {"binder": "B9", "binding signal": 0.307},
      {"binder": "B10", "binding signal": 0.51},
      {"binder": "B11", "binding signal": 3.29},
      {"binder": "B12", "binding signal": 0.449},
      {"binder": "B13", "binding signal": 0.787},
      {"binder": "B14", "binding signal": 0.274},
      {"binder": "B15", "binding signal": 0.694},
      {"binder": "B16", "binding signal": 6.62},
      {"binder": "B17", "binding signal": 0.561},
      {"binder": "B18", "binding signal": 0.314},
      {"binder": "B19", "binding signal": 2.66},
      {"binder": "B20", "binding signal": 0.482},
      {"binder": "B21", "binding signal": 0.29},
      {"binder": "B22", "binding signal": 0.229}
    ]}
  ]
}
